Measured values: patent publication EP0103381B1, “Substituted anthra(1,9-cd)pyrazol-6(2H)-ones” (WARNER-LAMBERT COMPANY, priority 1982, dated 1984)
Several values for one entry are separate records, joined by “and”; a condition that tells them apart may be missing. Equal values may be shown once. At least one read-out could not be matched to a standard name with certainty.

Tested on: lymphocytic leukemia P388
Assay: in vivo lymphocytic leukemia P388 test
Design: species or system mice
Settings: two single doses four days apart
Protocol: The in vivo lymphocytic leukemia P388 test is carried out by the United States National Cancer Institute. The animals used are either male or female CD2F, mice. There are six to seven animals per test group. The tumor transplant is by intraperitoneal injection of dilute ascitic fluid containing cells of lymphocytic leukemia P388. The test compounds are administered intraperitoneally in two single doses with a four-day interval between doses at various dose levels following tumor inoculation. The animals are weighed and survivors are recorded on a regular basis for 30 days. A ratio of survival time for treated (T)/ control (C) animals is calculated. The criterion for efficacy is T/C x 100 > 125%. The positive control compound in this test is 1,4-dihydroxy-5,8-[bis[[2-[(2-hydroxyethyl)amino]-ethyl]amino]-9,10-anthracene- dione given at dosages ranging from 12.0 to 0.075 mg/kg. See Cancer Chemotherapy Reports, Part 3, 3, 1 (1972) for a comprehensive discussion of the protocol.

## CCN(CC)CCn1nc2c3c(c(NCCNCCO)ccc31)C(=O)c1c(O)ccc(O)c1-2 [Example 28, 2-[2-(Diethylamino)ethyl]-7,10-dihydroxy-5-[[2-[(2-hydroxyethyl)amino]ethyl]amino]anthra[1,9-cd]pyrazol-6(2H)-one]
P388, Dose 0.39 mg/kg intraperitoneally, listed as 7,10-(OH)2, (CH2)2N(Et)2·2HCl, NH(CH2)2NH(CH2)2OH, 0.39 mg/kg
  T/C × 100 (Percent): 152% and 126%
P388, Dose 0.78 mg/kg intraperitoneally, listed as 7,10-(OH)2, (CH2)2N(Et)2·2HCl, NH(CH2)2NH(CH2)2OH, 0.78 mg/kg
  T/C × 100 (Percent): 151% and 159%
P388, Dose 1.56 mg/kg intraperitoneally, listed as 7,10-(OH)2, (CH2)2N(Et)2·2HCl, NH(CH2)2NH(CH2)2OH, 1.56 mg/kg
  T/C × 100 (Percent): 149% and 155%
P388, Dose 3.12 mg/kg intraperitoneally, listed as 7,10-(OH)2, (CH2)2N(Et)2·2HCl, NH(CH2)2NH(CH2)2OH, 3.12 mg/kg
  T/C × 100 (Percent): 166%
P388, Dose 6.25 mg/kg intraperitoneally, listed as 7,10-(OH)2, (CH2)2N(Et)2·2HCl, NH(CH2)2NH(CH2)2OH, 6.25 mg/kg
  T/C × 100 (Percent): 164%
P388, Dose 12.5 mg/kg intraperitoneally, listed as 7,10-(OH)2, (CH2)2N(Et)2·2HCl, NH(CH2)2NH(CH2)2OH, 12.5 mg/kg
  T/C × 100 (Percent): 264% and 212%

## O=C1c2c(O)ccc(O)c2-c2nn(CCCNCCO)c3ccc(NCCNCCO)c1c23 [Example 52, 7,10-Dihydroxy-5-[[2-[(2-hydroxyethyl)amino]ethyl]amino]-2-[3-((2-hydroxyethyi)amino]propyl]anthra[1,9-cd]pyrazol-6(2H)-one]
P388, Dose 12.5 mg/kg intraperitoneally, listed as 7,10-(OH)2, (CH2)3NHCH2CH2OH, NHCH2CH2NHCH2CH2OH, 12.5 mg/kg
  T/C × 100 (Percent): 146%
P388, Dose 25 mg/kg intraperitoneally, listed as 7,10-(OH)2, (CH2)3NHCH2CH2OH, NHCH2CH2NHCH2CH2OH, 25 mg/kg
  T/C × 100 (Percent): 174%
P388, Dose 50 mg/kg intraperitoneally, listed as 7,10-(OH)2, (CH2)3NHCH2CH2OH, NHCH2CH2NHCH2CH2OH, 50 mg/kg
  T/C × 100 (Percent): 222% and 183%

## CCN(CC)CC(O)Cn1nc2c3c(c(NCCN)ccc31)C(=O)c1c(O)ccc(O)c1-2 (stereo not drawn) [Example 45, 5-[(2-Aminoethyl)amino]-2-[3-(diethylamino)-2-hydroxypropyl]-7,10-dihydroxyanthra[1,9-cd]pyrazol-6(2H)-one]
P388, Dose 0.78 mg/kg intraperitoneally, listed as 7,10-(OH)2, CH2CHOHCH2N(Et)2·2HCl, NH(CH2)2NH2, 0.78 mg/kg
  T/C × 100 (Percent): 132% and 179%
P388, Dose 1.56 mg/kg intraperitoneally, listed as 7,10-(OH)2, CH2CHOHCH2N(Et)2·2HCl, NH(CH2)2NH2, 1.56 mg/kg
  T/C × 100 (Percent): 146%
P388, Dose 3.12 mg/kg intraperitoneally, listed as 7,10-(OH)2, CH2CHOHCH2N(Et)2·2HCl, NH(CH2)2NH2, 3.12 mg/kg
  T/C × 100 (Percent): 166% and 182% and 202%
P388, Dose 6.25 mg/kg intraperitoneally, listed as 7,10-(OH)2, CH2CHOHCH2N(Et)2·2HCl, NH(CH2)2NH2, 6.25 mg/kg
  T/C × 100 (Percent): 166% and 189% and 262%
P388, Dose 12.5 mg/kg intraperitoneally, listed as 7,10-(OH)2, CH2CHOHCH2N(Et)2·2HCl, NH(CH2)2NH2, 12.5 mg/kg
  T/C × 100 (Percent): 142% and 210%

## O=C1c2cccc(O)c2-c2nn(CCNCCO)c3ccc(NCCNCCO)c1c23 [Example 85, 10-Hydroxy-2-(2-[(2-hydroxyethyl)amino]ethyl]-5-[[2-[(2-hydroxyethyl)amino]ethyl]amino]anthra[1,9-cd] pyrazol-6(2H)-one]
P388, Dose 25 mg/kg intraperitoneally, listed as 10-OH, CH2CH2NHCH2CH2OH ·2.1HCl, NHCH2CH2NHCH2CH2OH, 25 mg/kg
  T/C × 100 (Percent): 155%
P388, Dose 50 mg/kg intraperitoneally, listed as 10-OH, CH2CH2NHCH2CH2OH ·2.1HCl, NHCH2CH2NHCH2CH2OH, 50 mg/kg
  T/C × 100 (Percent): 162%
P388, Dose 100 mg/kg intraperitoneally, listed as 10-OH, CH2CH2NHCH2CH2OH ·2.1HCl, NHCH2CH2NHCH2CH2OH, 100 mg/kg
  T/C × 100 (Percent): 221% and 184%

## O=C1c2c(O)ccc(O)c2-c2nn(CCO)c3ccc(NCCNCCO)c1c23 [Example 36, 5-[[2-[(2-Hydroxyethyl)amino]ethyl]amino]-7,10-dihydroxy-2-(2-hydroxyethyl)anthra[1,9-cd]pyrazol-6(2H)- . one]
P388, Dose 6.25 mg/kg intraperitoneally, listed as 7,10-(OH)2, (CH2)2OH·HCl, NH(CH2)2NH(CH2)2OH, 6.25 mg/kg
  T/C × 100 (Percent): 163%
P388, Dose 12.5 mg/kg intraperitoneally, listed as 7,10-(OH)2, (CH2)2OH·HCl, NH(CH2)2NH(CH2)2OH, 12.5 mg/kg
  T/C × 100 (Percent): 163%
P388, Dose 25 mg/kg intraperitoneally, listed as 7,10-(OH)2, (CH2)2OH·HCl, NH(CH2)2NH(CH2)2OH, 25 mg/kg
  T/C × 100 (Percent): 165% and 187%
P388, Dose 50 mg/kg intraperitoneally, listed as 7,10-(OH)2, (CH2)2OH·HCl, NH(CH2)2NH(CH2)2OH, 50 mg/kg
  T/C × 100 (Percent): 165%
P388, Dose 100 mg/kg intraperitoneally, listed as 7,10-(OH)2, (CH2)2OH·HCl, NH(CH2)2NH(CH2)2OH, 100 mg/kg
  T/C × 100 (Percent): 184%
P388, Dose 200 mg/kg intraperitoneally, listed as 7,10-(OH)2, (CH2)2OH·HCl, NH(CH2)2NH(CH2)2OH, 200 mg/kg
  T/C × 100 (Percent): 196% and 271%

## CCN(CC)CC(O)Cn1nc2c3c(c(NCCNCCO)ccc31)C(=O)c1c(O)ccc(O)c1-2 (stereo not drawn) [Example 43, 2-[3-(Diethylamino)-2-hydroxypropyl]-7,10-dihydroxy-5-[[2-[(2-hydroxyethyl)amino]ethyl]amino]-anthra[1,9-cd]pyrazol-6(2H)-one]
P388, Dose 3.12 mg/kg intraperitoneally, listed as 7,10-(OH)2, CH2CHOHCH2N(Et)2·2HCl, NH(CH2)2NH(CH2)2OH, 3.12 mg/kg
  T/C × 100 (Percent): 128% and 188% and 189%
P388, Dose 6.25 mg/kg intraperitoneally, listed as 7,10-(OH)2, CH2CHOHCH2N(Et)2·2HCl, NH(CH2)2NH(CH2)2OH, 6.25 mg/kg
  T/C × 100 (Percent): 128% and 203%
P388, Dose 12.5 mg/kg intraperitoneally, listed as 7,10-(OH)2, CH2CHOHCH2N(Et)2·2HCl, NH(CH2)2NH(CH2)2OH, 12.5 mg/kg
  T/C × 100 (Percent): 182% and 223%

## CCN(CC)CCNc1ccc2c3c(nn2CCN(CC)CC)-c2c(O)ccc(O)c2C(=O)c13 [Example 29, 2-[2-(Diethylamino)ethyl]-5-[[2-(diethylamino)ethyl]amino]-7,10-dihydroxyanthra[1,9-cd]pyrazol-6(2H)-one]
P388, Dose 12.5 mg/kg intraperitoneally, listed as 7,10-(OH)2, (CH2)2N(Et)2·2HCl, NH(CH2)2N(Et)2, 12.5 mg/kg
  T/C × 100 (Percent): 132% and 114% and 140%
P388, Dose 25 mg/kg intraperitoneally, listed as 7,10-(OH)2, (CH2)2N(Et)2·2HCl, NH(CH2)2N(Et)2, 25 mg/kg
  T/C × 100 (Percent): 143% and 149%
P388, Dose 50 mg/kg intraperitoneally, listed as 7,10-(OH)2, (CH2)2N(Et)2·2HCl, NH(CH2)2N(Et)2, 50 mg/kg
  T/C × 100 (Percent): 168% and 154% and 146%
P388, Dose 100 mg/kg intraperitoneally, listed as 7,10-(OH)2, (CH2)2N(Et)2·2HCl, NH(CH2)2N(Et)2, 100 mg/kg
  T/C × 100 (Percent): 174%

## CN(C)CCCn1nc2c3c(c(NCCN)ccc31)C(=O)c1c(O)ccc(O)c1-2 [Example 94, 5-[(2-Aminoethyl)amino]-2-[3-(dimethylamino)propyl]-7,10-dihydroxyanthra[1,9-cd]pyrazol-6(2H)-one]
P388, Dose 3.12 mg/kg intraperitoneally, listed as 7,10-(OH)2, CH2CH2CH2NMe2·2HCl, NHCH2CH2NH2, 3.12 mg/kg
  T/C × 100 (Percent): 180%
P388, Dose 6.25 mg/kg intraperitoneally, listed as 7,10-(OH)2, CH2CH2CH2NMe2·2HCl, NHCH2CH2NH2, 6.25 mg/kg
  T/C × 100 (Percent): 200%

## Cn1nc2c3c(c(NCCNCCO)ccc31)C(=O)c1c(O)ccc(O)c1-2 [Example 41, 7,10-Dihydroxy-5-[[2-[(2-hydroxyethyl)amino]ethyl]amino]-2-methylanthra[1,9-cd]pyrazol-6(2H)-one]
P388, Dose 6.25 mg/kg intraperitoneally, listed as 7,10-(OH)2, Me·HCl, NH(CH2)2NH(CH2)2OH, 6.25 mg/kg
  T/C × 100 (Percent): 133% and 155%
P388, Dose 12.5 mg/kg intraperitoneally, listed as 7,10-(OH)2, Me·HCl, NH(CH2)2NH(CH2)2OH, 12.5 mg/kg
  T/C × 100 (Percent): 149%
P388, Dose 25 mg/kg intraperitoneally, listed as 7,10-(OH)2, Me·HCl, NH(CH2)2NH(CH2)2OH, 25 mg/kg
  T/C × 100 (Percent): 164%
P388, Dose 50 mg/kg intraperitoneally, listed as 7,10-(OH)2, Me·HCl, NH(CH2)2NH(CH2)2OH, 50 mg/kg
  T/C × 100 (Percent): 164%
